The source of these data is PubChem BioAssay (NCI).

This assay relates to MDA-MB-468 breast. Nature of the assay: NCI tumour cell line growth inhibition, 48 h.

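Values below derive from 48-hour exposures of cells grown in 96-well plates, with endpoints linearly interpolated between the two concentrations bracketing the appropriate inhibition level. TGI: concentration producing complete growth inhibition.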 A number of entries come with more than one value. The other results are left out here. There may be further records. A record mostly stands for its own series of concentrations, which the source does not state; a value can be the end of its range.

Turning to `CC(=O)O[C@H]1C(=O)[C@@]2(C)[C@H]([C@H](OC(=O)c3ccccc3)[C@]3([O-])C[C@H](OC(=O)[C@H]([O-])[C@@H](NC(=O)c4ccccc4)c4ccccc4)C(C)=C1C3(C)C)[C@]1(OC(C)=O)CO[C@@H]1C[C@@H]2[O-].[Fe+3]`, the TGI is 178 nM and 12.5 µM.
